Assay results published in patent US6544989B2, “Benzazoles: benzoxazole, benzthiazole and benzimidazole derivatives” (Syngenta Limited, priority 1998, dated 2003).

How the values were obtained:
Conditions in all cases: 500 ppm by weight; mortality assessed usually between three and five days after treatment
Tetranychus urticae = tested on: Tetranychus urticae
Musca domestica = tested on: Musca domestica
Heliothis virescens = tested on: Heliothis virescens
Spodoptera exigua = assay: Pesticidal test, Spodoptera exigua mortality
Procedure: The test procedure adopted with regard to each pest, except nematodes, was essentially the same and composed supporting a number of the pests on a medium which was usually a substrate, a host plant or a foodstuff on which the pests feed, and treating either or both the medium and the pests with a composition. Pest mortality was assessed usually between three and five days after treatment Knockdown of housefly (Musca domestica) was assessed 15 minutes after treatment

Myzus persicae = assay: Pesticidal test, Myzus persicae mortality

SMILES	TETRUR = Tetranychus urticae, grading of mortality (score) (Tetranychus urticae)	MUSCDO AK = Musca domestica (kill), grading of mortality (score) (Musca domestica)	HELIVI = Heliothis virescens, grading of mortality (score) (Heliothis virescens)	LAPHEG = Spodoptera exigua, grading of mortality (score) (Spodoptera exigua)	MYZUPE = Myzus persicae, grading of mortality (score) (Myzus persicae)
CCN(C)c1nc2cc(CC(=O)Nc3snc(C)c3Cl)ccc2o1 [180(A3)]	0 (0 indicates less than 40% mortality)	0 (0 indicates less than 40% mortality)	0 (0 indicates less than 40% mortality)	5 (5 indicates 40-79% mortality)	0 (0 indicates less than 40% mortality)
Cc1nc2cc(CC(=O)N(C)c3snc(C)c3Cl)ccc2o1 [2(B3)]	0 (0 indicates less than 40% mortality)	0 (0 indicates less than 40% mortality)	0 (0 indicates less than 40% mortality)	0 (0 indicates less than 40% mortality)	0 (0 indicates less than 40% mortality)
Cc1nsc(NC(=O)Cc2ccc3oc(Cl)nc3c2)c1Cl [174(A3)]	0 (0 indicates less than 40% mortality)	0 (0 indicates less than 40% mortality)	0 (0 indicates less than 40% mortality)	0 (0 indicates less than 40% mortality)	5 (5 indicates 40-79% mortality)
CCCc1nc2cc(CC(=O)N(COC)c3snc(C)c3Cl)ccc2o1 [4(K3)]	0 (0 indicates less than 40% mortality)	0 (0 indicates less than 40% mortality)	0 (0 indicates less than 40% mortality)	5 (5 indicates 40-79% mortality)	5 (5 indicates 40-79% mortality)
CCc1nc2cc(CC(=O)Nc3snc(C)c3Cl)ccc2o1 [3(A3)]	5 (5 indicates 40-79% mortality)	9 (9 indicates 80-100% mortality)	9 (9 indicates 80-100% mortality)	5 (5 indicates 40-79% mortality)	9 (9 indicates 80-100% mortality)
Cc1nsc(NC(=O)Cc2ccc3oc(S)nc3c2)c1Cl [352(A3)]	0 (0 indicates less than 40% mortality)	0 (0 indicates less than 40% mortality)	0 (0 indicates less than 40% mortality)	0 (0 indicates less than 40% mortality)	5 (5 indicates 40-79% mortality)
CCSc1nc2cc(CC(=O)Nc3snc(C)c3Cl)ccc2o1 [221(A3)]	0 (0 indicates less than 40% mortality)	5 (5 indicates 40-79% mortality)	0 (0 indicates less than 40% mortality)	0 (0 indicates less than 40% mortality)	9 (9 indicates 80-100% mortality)
COCN(C(=O)Cc1ccc2oc(C)nc2c1)c1snc(C)c1Cl [2(K3)]	9 (9 indicates 80-100% mortality)	0 (0 indicates less than 40% mortality)	0 (0 indicates less than 40% mortality)	0 (0 indicates less than 40% mortality)	9 (9 indicates 80-100% mortality)
Cc1nsc(NC(=O)Cc2ccc3oc(-c4cc(Cl)cc(Cl)c4)nc3c2)c1Cl [261(A3)]	0 (0 indicates less than 40% mortality)	0 (0 indicates less than 40% mortality)	0 (0 indicates less than 40% mortality)	0 (0 indicates less than 40% mortality)	0 (0 indicates less than 40% mortality)
Cc1nsc(NC(=O)Cc2ccc3oc(N4CCOCC4)nc3c2)c1Cl [191(A3)]	9 (9 indicates 80-100% mortality)	5 (5 indicates 40-79% mortality)	5 (5 indicates 40-79% mortality)	0 (0 indicates less than 40% mortality)	0 (0 indicates less than 40% mortality)
Cc1cc(NC(=O)Cc2ccc3oc(CC(C)(C)C)nc3c2)sn1 [15(A1)]	9 (9 indicates 80-100% mortality)	0 (0 indicates less than 40% mortality)	0 (0 indicates less than 40% mortality)	0 (0 indicates less than 40% mortality)	0 (0 indicates less than 40% mortality)
Cc1nsc(NC(=O)Cc2ccc3oc(NC(C)(C)C)nc3c2)c1Cl [183(A3)]	9 (9 indicates 80-100% mortality)	5 (5 indicates 40-79% mortality)	5 (5 indicates 40-79% mortality)	5 (5 indicates 40-79% mortality)	0 (0 indicates less than 40% mortality)
COCN(C(=O)Cc1ccc2oc(CC(C)(C)C)nc2c1)c1snc(C)c1Cl [15(K3)]	9 (9 indicates 80-100% mortality)	0 (0 indicates less than 40% mortality)	5 (5 indicates 40-79% mortality)	5 (5 indicates 40-79% mortality)	9 (9 indicates 80-100% mortality)
CCC(CC)c1nc2cc(CC(=O)Nc3snc(C)c3Cl)ccc2o1 [13(A3)]	9 (9 indicates 80-100% mortality)	5 (5 indicates 40-79% mortality)	0 (0 indicates less than 40% mortality)	0 (0 indicates less than 40% mortality)	9 (9 indicates 80-100% mortality)
Cc1nc2ccc(CC(=O)Nc3snc(C)c3Cl)cc2[nH]1 [2(A43)]	0 (0 indicates less than 40% mortality)	0 (0 indicates less than 40% mortality)	0 (0 indicates less than 40% mortality)	0 (0 indicates less than 40% mortality)	0 (0 indicates less than 40% mortality)
CCCc1nc2cc(CC(=O)N(C)c3snc(C)c3Cl)ccc2o1 [4(B3)]	0 (0 indicates less than 40% mortality)	0 (0 indicates less than 40% mortality)	0 (0 indicates less than 40% mortality)	5 (5 indicates 40-79% mortality)	5 (5 indicates 40-79% mortality)
CCCc1nc2cc(CC(=O)N(COCCOC)c3snc(C)c3Cl)ccc2o1 [4(M3)]	0 (0 indicates less than 40% mortality)	0 (0 indicates less than 40% mortality)	0 (0 indicates less than 40% mortality)	0 (0 indicates less than 40% mortality)	9 (9 indicates 80-100% mortality)
COC(=O)CSc1nc2cc(CC(=O)Nc3snc(C)c3Cl)ccc2o1 [229(A3)]	0 (0 indicates less than 40% mortality)	0 (0 indicates less than 40% mortality)	0 (0 indicates less than 40% mortality)	0 (0 indicates less than 40% mortality)	0 (0 indicates less than 40% mortality)
